Source: PubChem BioAssay AID1745853 (National Center for Advancing Translational Sciences (NCATS), 2022)
Where “and” joins values, the source holds several entries; their conditions need not be identical. Equal entries are not always repeated. The list shows a part of the results. Shown are side measurements of this screen, not its main read-out; they come without a call.

Experiments:
Experiment in all cases: Primary Screen for Target Class Profiling of Small Molecule Inhibitors of Methyltransferases
[1] = target: Glycine N-methyltransferase (Homo sapiens) (UniProt Q14749); details: purified enzyme, MTase-Glo SAH luminescence; measured here: GNMT inhibition; at 40 µM; stronger effect = lower value
In short: (§1)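 Each enzyme was reacted with SAM and its substrate, with compounds tested once at 40 uM; SAH formed was read by MTase-Glo luminescence.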

[2] = target: Guanidinoacetate N-methyltransferase (Homo sapiens) (UniProt Q14353); details: purified enzyme, MTase-Glo SAH luminescence; measured here: GAMT inhibition; at 40 µM; stronger effect = lower value
In short: as §1

[3] = target: Histamine N-methyltransferase (Homo sapiens) (UniProt P50135); details: purified enzyme, MTase-Glo SAH luminescence; measured here: HNMT inhibition; at 40 µM; stronger effect = lower value
In short: as §1

[4] = target: Nicotinamide N-methyltransferase (Homo sapiens) (UniProt P40261); details: purified enzyme, MTase-Glo SAH luminescence; measured here: NNMT inhibition; at 40 µM; stronger effect = lower value
In short: as §1

[5] = target: Phenylethanolamine N-methyltransferase (Homo sapiens) (UniProt P11086); details: purified enzyme, MTase-Glo SAH luminescence; measured here: PNMT inhibition; at 40 µM; stronger effect = lower value
In short: as §1
% is set by controls: 0 for no effect and ±100 for the full control effect.

CCOC(=O)c1cc2n(n1)CC(C)(C(=O)NCCOC)N(c1ccc(OCC)cc1)C2=O (stereo not given)
activity change, negative = inhibition [1]: 7.72%
activity change, negative = inhibition [2]: 0.477%
activity change, negative = inhibition [3]: 9.35%
activity change, negative = inhibition [4]: 11.7%
activity change, negative = inhibition [5]: 8%

CCN1C(=O)c2cc(C(=O)NCc3ccc4c(c3)OCO4)nn2CC1(C)C(=O)NC1CCCC1 (stereo not given)
activity change, negative = inhibition [1]: 0.012%
activity change, negative = inhibition [2]: 3.98%
activity change, negative = inhibition [3]: -3.84%
activity change, negative = inhibition [4]: 3.97%
activity change, negative = inhibition [5]: -0.406%

CC(=O)c1c(O)cc2c(c1C)C(=O)CC(O)C2 (stereo not given)
activity change, negative = inhibition [1]: 4.29%
activity change, negative = inhibition [2]: 7.04%
activity change, negative = inhibition [3]: 11.4%
activity change, negative = inhibition [4]: -5.82%
activity change, negative = inhibition [5]: 4.45%

COc1ccc([C@@H]2CN(C(=O)CCc3ccsc3)C[C@H]2N(C)C)cc1
activity change, negative = inhibition [1]: 1.17%
activity change, negative = inhibition [2]: -0.258%
activity change, negative = inhibition [3]: -2.6%
activity change, negative = inhibition [4]: -0.321%
activity change, negative = inhibition [5]: 8.61%

CCN(CC)CCCNC(=O)c1cc2n(n1)CC(C)(C(=O)NC1CCCC1)N(C)C2=O (stereo not given)
activity change, negative = inhibition [1]: 5.6%
activity change, negative = inhibition [2]: 5.92%
activity change, negative = inhibition [3]: 2.04%
activity change, negative = inhibition [4]: 3.4%
activity change, negative = inhibition [5]: 1%

C=CCn1c(=O)c2ccc(C(=O)NC(C)C)cc2n2c(=O)n(CC(=O)Nc3cc(F)ccc3F)nc12
activity change, negative = inhibition [1]: 3.81%
activity change, negative = inhibition [2]: 4.63%
activity change, negative = inhibition [3]: 3.75%
activity change, negative = inhibition [4]: -3.6%
activity change, negative = inhibition [5]: -0.013%

CCOc1ccc(CN2C(=O)c3cc(-c4ccccc4)nn3CC2(C)C(=O)NCCCOC)cc1 (stereo not given)
activity change, negative = inhibition [1]: -8.5%
activity change, negative = inhibition [2]: -0.376%
activity change, negative = inhibition [3]: -1.93%
activity change, negative = inhibition [4]: -2.17%
activity change, negative = inhibition [5]: -2.11%

COc1ccc(OC)c(CCNC(=O)C(C)n2ccc3cc(S(=O)(=O)N4CCCC4)ccc32)c1 (stereo not given)
activity change, negative = inhibition [1]: 0.218%
activity change, negative = inhibition [2]: 3.39%
activity change, negative = inhibition [3]: -2.82%
activity change, negative = inhibition [4]: -0.93%
activity change, negative = inhibition [5]: -2.92%

COc1ccccc1OCCN1CC(COc2cccc3[nH]c4ccccc4c23)OCC1=O (stereo not given)
activity change, negative = inhibition [1]: 1.15%
activity change, negative = inhibition [2]: -4.65%
activity change, negative = inhibition [3]: 8.62%
activity change, negative = inhibition [4]: -19.3%
activity change, negative = inhibition [5]: -2.75%

CN1C(=O)c2cc3ccccc3n2CC1(C)C(=O)NCC(=O)NCCc1ccco1 (stereo not given)
activity change, negative = inhibition [1]: -6.58%
activity change, negative = inhibition [2]: 4.23%
activity change, negative = inhibition [3]: -3.08%
activity change, negative = inhibition [4]: -1.98%
activity change, negative = inhibition [5]: -4.45%

COc1ccc(CN2C(=O)c3nc4ccccc4n3CC2(C)C(=O)NCc2ccccc2)c(OC)c1 (stereo not given)
activity change, negative = inhibition [1]: -0.413%
activity change, negative = inhibition [2]: 0%
activity change, negative = inhibition [3]: 3.81%
activity change, negative = inhibition [4]: -21.1%
activity change, negative = inhibition [5]: 3.58%

C[C@H](/C=C/[C@@]1(O)[C@H](C)CC(=O)CC1(C)C)O[C@@H]1O[C@H](CO[C@@H]2OC[C@@H](O)[C@H](O)[C@H]2O)[C@@H](O)[C@H](O)[C@H]1O
activity change, negative = inhibition [1]: 0%
activity change, negative = inhibition [2]: 3.06%
activity change, negative = inhibition [3]: 2.12%
activity change, negative = inhibition [4]: -9.19%
activity change, negative = inhibition [5]: 4.78%

COc1cccc(CCC(=O)N2CCCCC2c2nc(-c3ccncc3)n[nH]2)c1 (stereo not given)
activity change, negative = inhibition [1]: -3.92%
activity change, negative = inhibition [2]: -2.18%
activity change, negative = inhibition [3]: -3.17%
activity change, negative = inhibition [4]: -5.07%
activity change, negative = inhibition [5]: -1.62%

CC(C)NC(=O)c1ccc2c(=O)n(C(C)C)c3nn(Cc4c(F)cccc4Cl)c(=O)n3c2c1
activity change, negative = inhibition [1]: 4.67%
activity change, negative = inhibition [2]: 2.7%
activity change, negative = inhibition [3]: 5.94%
activity change, negative = inhibition [4]: 0.423%
activity change, negative = inhibition [5]: -0.698%

CCCn1c(=O)c2ccc(Cl)cc2n2c(=O)n(Cc3ccc(Cl)cc3)nc12
activity change, negative = inhibition [1]: 2.66%
activity change, negative = inhibition [2]: 4.97%
activity change, negative = inhibition [3]: 9.05%
activity change, negative = inhibition [4]: -7.04%
activity change, negative = inhibition [5]: 2.96%

C=CC[C@H](N)C(=O)O
activity change, negative = inhibition [1]: -7.45%
activity change, negative = inhibition [2]: 0.721%
activity change, negative = inhibition [3]: -2.42%
activity change, negative = inhibition [4]: -9.95%
activity change, negative = inhibition [5]: -0.361%

Brc1ccc([C@H]2CN3CCSC3=N2)cc1
activity change, negative = inhibition [1]: -1.07% and -17.5%
activity change, negative = inhibition [2]: -5.42% and 8.57%
activity change, negative = inhibition [3]: -6.9% and -12.8%
activity change, negative = inhibition [4]: -13.9% and -10.9%
activity change, negative = inhibition [5]: 0.916% and -1.25%

CCOC(=O)c1cc2n(n1)CC(C)(C(=O)NCc1ccccc1)N(Cc1ccccc1OCC)C2=O (stereo not given)
activity change, negative = inhibition [1]: -1.64%
activity change, negative = inhibition [2]: 0.633%
activity change, negative = inhibition [3]: 0.723%
activity change, negative = inhibition [4]: -4.13%
activity change, negative = inhibition [5]: -0.773%

CC1(C(=O)NC2CCCCCC2)Cn2c(cc3ccccc32)C(=O)N1Cc1ccccn1 (stereo not given)
activity change, negative = inhibition [1]: -2.32%
activity change, negative = inhibition [2]: 1.8%
activity change, negative = inhibition [3]: -5.23%
activity change, negative = inhibition [4]: -11.2%
activity change, negative = inhibition [5]: -6.37%
